The chains are these.
B1: TPR 5TU (parent)
chain: GGAUCUUCUCGAUCUAACAAAAAAGACAAAUCUGCCACAAAGCUUGAGAGCAUCUUCGGAUGCAGAGGCGGCAGCCUUCGGUGGCGCGAUAGCGCCAACGUUCUCAACUAUGACACGCAAAACGCGUGCUCCGUUGAAUGGAGUUUAUCAUG

Variants at the background level are over-represented here. Bounds are passed on as bounds.

The source of these data is the RNAGym collection of RNA variant scans (doi:10.1073/pnas.2313332121).

In this series the parent is B1. Kind of series: polymerase ribozyme fitness, log enrichment relative to wild type (log ratio); higher = more active; in vitro selection for triplet polymerase activity. In short, it runs like this: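 After PCR construction and transcription, each subunit's mutant library from a heterodimeric triplet polymerase ribozyme was annealed with a biotinylated primer, the partner subunit and triplets. Incubation was frozen, at −7 °C, and extended constructs were gel-excised, bound to streptavidin beads and amplified by RT-PCR, in one selection round done in triplicate. Fitness is the logarithm of a genotype's enrichment divided by that of the wild type, from inverse-variance-weighted replicate averages of Illumina-sequenced inputs and outputs. The base of the logarithm is 2, and genotypes needed ≥10 input reads and ≥1 read per output.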
Take GGAUCUUCUCGAUCUAACAAAAAAGCCAAAUCUGCCACAAAGCUUGAGAGCAUCUUCGGAUGCAGAGGCGGCAGCCUUAGGUGGCGCGAUAGCGCCAACGUUCUCAACUAUGACCCGCAAAACGCGUGCUCCGUUGAAAGGAGUUUAUCAUG: the “polymerase ribozyme fitness (log ratio)” value is at most -4.2. Turning to GGAUCUUCUCGAUCUAACAAAAAAGCCAAAUCUGCCACAAAGCUUGAGAGCAUCUUCGGAUGCAGAGGCGGCAGCCUUCGGUGGCGCGAUAGCGCCAACGUUCUCAACUAUGACACGCAAAACGCGUGUUCCGUGGAAUGCAGUUUAUCAUG, the “polymerase ribozyme fitness (log ratio)” value is at most -4.2. As to GGAUCUUCUCGAUCUAACAAAAAAGGCAAAUCUGCCACGAAGCUUGAGAGCAUCUUCGGAUGCAGAGGCGGCAGCCUUCGGUGGUGCGAUAGCGCCAACGUUCUCAACUAUGACACGCAAAACGCGUGCUCCGUUGAAUGGAGUUUAUCAUG, the “polymerase ribozyme fitness (log ratio)” value is at most -4.2. In the case of GGAUCUUCUCGAUCUAACAAAAAAGCCAAAUCUGCCACAAAGCUUGAGAGCAUCUUCGGAUGCAGAGGCGGCAGCCUUCGGUGGCGCGAUAGCGCUAAGGUUCUCAACUAUGACACGCAAAACGCGUGAUCCGUUGAAUCGAGUUUAUCAUG it was at most -4.2. On to GGAUCUUCUCGAUCUAACAAAAAAGCCAAAUCUGCCACAAAGCUUGAGAGCAUUUUCGUAUGCAGAGGCGGCAGCCUUAGGUGGCGCGAUAGCGCCAACGUUCUCUACUAUGACACGCAAAACGCGUGCUCCGUUGAAUGGAGUUUAUCAUG, for which the “polymerase ribozyme fitness (log ratio)” value is at most -4.2.

Take GGAUCUUCUCGAUCUAACAAAAAAGGCAAUUCUGCCACAAAGCUUGAGAGCAUCUUAGGAUGCAGAGGCGGCAGCCUUCGGUGGCGCGAUAGCGUCAACGUUCUCAACUAUGACACGCAAAACGCGUGCUCCGUUAAAUGGAGUUUAUCAUG: the “polymerase ribozyme fitness (log ratio)” value is at most -4.2. For GGAUCUUCUCGAUCUAACAAAAAAGCCAAAUCUGCCACAAAGCUUGAGAGCAUCUUCGGAUGCAGAGGCGGCAGCCUUCGAUGGGGAGAUAGCGCCAACGUUCUCAACUAUGACACGCAAAACGCGUGCUCCGUUGAAUGUAGUUUAUGAUG, the “polymerase ribozyme fitness (log ratio)” value is at most -4.2. In the case of GGAUCUUCUCGAUCUAACAAAAAAGCCAAAUCUGCCACAAAGCUUGAGAGCAUCUUCGGAUGCAGAGGCGGCAGCCUUCAUUGGCGCGAUAGCAGCAACGUUCUCAACUAUGACACGCAAAACGCGUGCUCCGUUUAAUGCAGUUUAUCAUG, the “polymerase ribozyme fitness (log ratio)” value is at most -4.2. GGAUCUUCUCGAUCUAACAAAAAAGCCAAAUCUGCCACAAAGCUUGAGAGCAUCUUCGGAUGCAGAGGCGGCAGCCUCCGGUGGCGCAAUAGCGCCAACGUUCUCAAGUAUGAGACGCAAAACGCGUGCUCCGUUGAAUGGAGUUUAUGAUG: the “polymerase ribozyme fitness (log ratio)” value is at most -4.2. Turning to GGAUCUUCUCGAUCUAACAAAAAAGCCAAAUCUGCCACAAAGCUUGAGAGCAUCUUCGGAUGCAGAGGCGGCAGCCGUCGGUGGAGAGAUAGCGCCAACGUUCUCAACUAUGACACGCAAAACGCGUGCUCCGUUGAAUGGAGUUUAUCAUG, the “polymerase ribozyme fitness (log ratio)” value is at most -4.2. Regarding GGAUCUUCUCGAUCUAACAAAAAAGGCCAAUCUGCCACAAAGCUUGAGAGCAUCAUCGGAUGCAGAGGCGGCAGCCUUCGGUGGCGCGAUAGAGCCAACGUUCUCAACUGUGACACGCAAAACGCGUGCUCCGUUGAAUUGAGUUUAACAUG, the “polymerase ribozyme fitness (log ratio)” value is at most -4.2. Turning to GGAUCUUCUCGAUCUAACAAAAAAGCCAAAUCUGCCACAAAGCUUGAGAGGAUCUUCGGAUGCAAAGGCGGCACCCUUCGUUGGCGCGAUAGGGCCAACGUUCUCAACUAUGACACGCUAAACGCGUGCUCUGUUGAAUGCAGUUUAUCAUG, the “polymerase ribozyme fitness (log ratio)” value is at most -4.2. As for GGAUCUUCUCGAUCUAACAAAAAAGCCAAAUCUGCCACAAAGCUUGAGACCAGCUUCGGAUGCAGAGGCGGCAGCCUUCGGUGGAGCGAUAGCGCUAACGUUCUCAACUAUGACACGGAAAACCCGUGCUCCGUUCAAUGGAGUUUAACAUG, the “polymerase ribozyme fitness (log ratio)” value was at most -4.2. For GGAUCUUCUCGAUCUAACAAAAAAGCCAAAUCUGCCACAAAGCUUGAGAGCAUCAUUGGAUGCAGAGGCGGCAGCCGUCGGUGGCGCGAUAGCGCCAACGUUCUCAACUAUCACACGCAAAACGCGUGCUCCGUUGAAUGGUUCUUAUCAUG, the “polymerase ribozyme fitness (log ratio)” value is at most -4.2. As for GGAUCUUCUCGAUCUAACAAAAAAGCCAAAUCUGCCACAAAGCUUGAGAGCAUCUUCGGAUGCAAAGGCGGCAGCCUUAGGUGGCGCGUUAGCGCCCACGUUCUCAACUAUGACACACAAAACGCGUGCUCCGUUGAAUGGAGUUUAUCAUG, the “polymerase ribozyme fitness (log ratio)” value was at most -4.2. In the case of GGAUCUUCUCGAUCUAACAAAAAAGCCAAAUCAGCCACAAAGCUUGAGAGCAUCUUCGGAUGCAGAGGCGCCAGCCUUCGGUGGCGCGCUAGCGGCAACGUUCUCAACUAUGACACGUAAAACGCGUGCUCCGUUGAAUGGAGUUUAUCAUG it was at most -4.2; in that of GGAUCUUCUCGAUCUAACAAAAAAGCCAAAUCUGCCACAAAGCUUGAGAGCAUCUUCGGAUGCAGAGGCGGCAGCCUUCGGUGGCGCUAUAUCGCCAACGUUCUCAACUAUGACACUCAAAACGCGUGCUCCGUUGAAUGGAGUUUAUCAUG, at most -4.2. In the case of GGAUCUUCUCGAUCUAACAAAAAAGCCAAAUCUGCCACAAAGCUUGAGAGCAUCUUCGGAUGCAGAGGCGGCAGCUUUCGUUGGCACGAUAGCGCCAACGUUCUCAACUAUGACACGCAAAACGCGUGCUCCGUUGAAUGGAGCUUAUCAUG it was -3.81; in that of GGAUCUUCUCGAUCUAACAAAAAAGCCAAAUCUGCCAUAAAGCUUGAGAGCAUCUUCGGAUGCAGAGGCGGCAGCCUUCGGUGGCUCGAUAGCGCCAACGUUCUCAACUAUGACACGCAAAACGCGUGCUCCGUUGAAUGGAGGUUAUCAUG, -3.75; in that of GGAUCUUCUCGAUCUAACAAAAAAGCCAAAUCUGCCACAAAGCUUGAGAGCAUCUUCGGAUGCAGAGGCCGCAGCCUUCGGUGGCGCGAUAGCGCCAAUGUUCUUAACUAUGACACGCAAAACGCGUGCUCCGUUAAAUGGAGUUUAUCAUG, at most -4.2.

Turning to GGAUCUUCUCGAUCUAACAAAAAAGCCAAAUCUGCCACAAAGCUUAAGAGAAUCUUCGGAUGCAGAGGCGGCAGCCUUCGGUGGAGCGAUAGCGCCAACGUUCUCAACUAUGACACGCAAAACGCGUGCUCCGUUGAAUGGAGUUUAUCAUG, the “polymerase ribozyme fitness (log ratio)” value was at most -4.2. Regarding GGAUCUUCUCGAUCUAACAAAAAAGCCAAAUCUGCCACAAAGCUUGAGAGCAUCUUCGGAUGCAGAGGCGGCAGCCUUCGGUGGCGCGAUAGAGCCAACGUUCUCAACUAUGACACGCAAAACGCGUGCUCCGUUGAAUGGAGUUUAUCAUG, the “polymerase ribozyme fitness (log ratio)” value is -3.21. Take GGAUCUUCUCGAUCUAACAAAAAAGGCAAAUCUGCCACACAGCUUGAGAGCAUCUUCGGAUGUAGAGGCGGCAGCCUUCUGUGGCGCGAUAACGCCAACGUUCUCAACUAUGACACGCAAAACGCUUGCUCCGUUGAAUGGUGUUUAUCAUG: the “polymerase ribozyme fitness (log ratio)” value was at most -4.2. Turning to GGAUCUUCUCGAUCUAACAAAAAAGCCAAAUCUGCCACAAAGCUUGAGAGCAUCUUCGGAUGCAGAGGCGGCAGCCUUUGGUGGGGCGAUAGCGCCAGCGUUCUCAACUAUGACACGCAAAACGCGUGCUCCGUUAACUGGAGUUUAUCAUG, the “polymerase ribozyme fitness (log ratio)” value was at most -4.2. Regarding GGAUCUUCUCGAUCUAACAAAAAAGGCAGAUCUGCCACAAAGCUUGAGAGCAUCUUGGGAUGCAGAGGCGGCAGCCUUCGGUGGCGCGAUAGCUCCAACGUUCUCAACUAUGACACGCAAAACGCGUGCUCCGUUGAAUGGAGUUUAUCAUG, the “polymerase ribozyme fitness (log ratio)” value was at most -4.2. Turning to GGAUCUUCUCGAUCUAACAAAAAAGCCAAAUCUGCCACAAAGCUUGAGAGCAUCUUCGGAUGCAGAGGCGGCAGCAUUCGGUGGCGCGAUAGCGCCAACGUUCUCAACUAUGACACGCAAAACGCGUGCUCCGUUGAAUGGAGUUUAUCAUG, the “polymerase ribozyme fitness (log ratio)” value is -3.75. Turning to GGAUCUUCUCGAUCUAACAAAAAAGCCAAAUCUGCCACAAAGCUUGAGAGCAUCUUCGGAUGCAGAGCCGGCAGCCUUCGGGGGCGGGAUAGCGCCAACGUUCUCAACUAUGACACGCAAAACGCGUGCUCCGUUGAAUGGAGUUUAUCAUG, the “polymerase ribozyme fitness (log ratio)” value was at most -4.2. Turning to GGAUCUUCUCGAUCUAACAAAAAAGCCAAAUCUGCCACAAAACUUGAGAGCAUCUUCGGAUGCAGAGGCGGCAGCCUUCGGUGGCGCGAUAGCGCCAACGUUCUCACCUAUGACACGCAAAACGCGUGCUCCGUUGAAUGGAGUUUAUCAUG, the “polymerase ribozyme fitness (log ratio)” value was at most -4.2.

On to GGAUCUUCUCGAUCUAACAAAAAAGCCAAAUCUGCCACAAAGCUUGAGAGCAUCUUCGGAUGCAGACGCGGCAGCCUUCGGUGGCGCGAUAGCGCCAACGUUCUCAACUAUGACACGCAAAACGCGUGCUCCAUUGAAUGGAGUUUAUCAUG, for which the “polymerase ribozyme fitness (log ratio)” value was at most -4.2. The value for GGAUCUUCUCGAUCUAACAAAAAAGCCAAAUCUGCCACAAAGCUUGAGAGCAUCUUCGGAUGCAGAGGCGGCAGCCUUCGGUCGCGCGAUAGCGCCAACGUUCUCAACUAUGACACGCAAAACGCGUGCUCCGUUGAAUGGAGUUUAUCAUG was -2.82. The value for GGAUCUUCUCGAUCUAACAAAAAAGCCAAAUCUGCCACAAAGCUUGAGAUCAUCUUCGGAUGCAGAGGCGGCAGCCUUGGGUGGUGCGAUAGCGCUAACGUUCUCAACUAUGACACGCAAAACGCGGGCUCCGUUGAAUGGAGUUUAACAUG was at most -4.2; that for GGAUCUUCUCGAUCUAACAAAAAAGGCAAAUCUGCCACUAAGCUUGAGAGCAUCUUCGGAUGCAGAGGCGGCAGCCUUCCGUGGCGCGAUAGCGCCAACGUUCUCGACUAUGACACGCAAAAAGCCUGCUCCGUUGAAUGGACUUUAUCAUG was at most -4.2; that for GGAUCUUCUCGAUCUAACAAAAAAGCCAAAUCUGCCACAAACCUUGAGAGCAUCUUCGGAUGCAGAGGCGGCAGCCUUCGGUGGCGCGAUAGCGCUAACGUUCUUAACUAUGACACGCAAAACGCGUGCUCCGUUGAAUGGAGUUUAUCAUG was at most -4.2. On to GGAUCUUCUCGAUCUAACAAAAAAGCCAAAUCUGCCACAAAGCUUGAGAGCAUCUUCGGAUGCAGAGGCGGCAGCCGUCGGUGGCGCGAUAGCGCCAACGUUCUCAACUAUGACACGCAAAACGCGUGCUCCGUUGAAUGGAGUUUAUCAUG, for which the “polymerase ribozyme fitness (log ratio)” value was at most -4.2.

Regarding GGAUCUUCUCGAUCUAACAAAAAAGCCAAAACUGCCACAAAGCUUGAGAGCAUCUUCGGAUGCAGAGGCGGCAGCAUUCGGUGGCGAGAUAGCGCCAACGUUCUCAACUAUGACACGUAAAACGCGUGCUCCGUUGAAUGGAGUUUAUCAUG, the “polymerase ribozyme fitness (log ratio)” value is at most -4.2.

For the variant GGAUCUUCUCGAUCUAACAAAAAAGCCAAAUCUGCCACAAAGCUUGAGAGCAUCUUCGGAUGCAGAGGCGGCAGCCUACGGUGGCGCGCUAGGGCCAACGUUCUCACCUAUGACGCGCAAAACGCGUGCUCCGCUGAAUGGAGUUUAUCAUG, the “polymerase ribozyme fitness (log ratio)” value is at most -4.2. Take GGAUCUUCUCGAUCUAACAAAAAAGCCAAAUCUGCCACAAAGCUUGAGAGCAUCUUCGGAUGCAGAGGCGGCAGUCUUCGGUGGCGCGAUACCGCCAACGUUCUCAACUAUGACACGCAAAACGCGUGCUCCGUUGAAUGGAGUUUAUCAUG: the “polymerase ribozyme fitness (log ratio)” value is at most -4.2.

For GGAUCUUCUCGAUCUAACAAAAAAGCCAAAUCUGCCACAAAACUUCAGGGCCUUUUCGGAUGCAGAGGCGGCAGCCUUCGGUGGCGCGAUUGCGCCAAUGUUCUCAACGAUGACACGCAAAACGCGUGCUCUGUUGAAUUGAGUUUAUCAUG, the “polymerase ribozyme fitness (log ratio)” value was at most -4.2.
